In all, about 150,000 compounds went through this assay and about 540 (0.36%) showed an effect of 50% or more. The list shows a part of the results.

The test system of the experiment is Plasmodium falciparum. In words: Primary screen in NF54 nanoGlo assay, in single point, at 2uM, 72h; a lower Z score goes with more inhibition. The conditions noted are these: timepoint 72 hour. The class given is functional, Erythrocyte.
Take `C=CCN1CC2(CCC1=O)CCN(Cc1cccnc1)CC2`: the “% Inhibition” value was found to be 10% and the Z score is -1.71.
For `CCC(=O)N1CCOC[C@]2(CN(Cc3ccccc3-c3ccco3)CCO2)C1` the same measures were -1% and 0.1.
For `C[C@H](N1CCN(C(N)=O)CC1)C(F)(F)F` the same measures were -9% and 1.08.
For `CCOC(=O)[C@H]1CCCN(Cc2cncc(-c3ccccc3C)c2)C1`, the “% Inhibition” value is -21% and the Z score was determined as 1.89.
As for `O=C1N[C@H]2CCN(C(=O)c3ncoc3C3CC3)C[C@@H]2CO1`, the “% Inhibition” value was -12% and the Z score turned out to be 1.52.
For `COCC(=O)N(Cc1cccc(F)c1)c1ccc(CC(=O)NCc2ccncc2)cc1` the same measures were -4% and 0.37.
For `Cn1ccc2ccc(NC(=O)N3C[C@H](O)C(C)(C)C3)cc2c1=O` the same measures were -7% and 0.94.
For `OCCN1CCN(C2CCN(Cc3sccc3Cl)CC2)CC1` the same measures were -15% and 2.24.
For the molecule `Cc1cc(C)c(NC(=O)CCCS(=O)(=O)Cc2cccc3ccccc23)c(C)c1`, the “% Inhibition” value is listed as -8% and the Z score is given as 1.46.
For `COc1ccc(S(=O)(=O)NCCCn2c(-c3ccc(C)cc3)nc3cccnc32)cc1Cl` the same measures were -5% and 0.68.
Consider `CNC(=O)[C@H](NC(=O)c1cc(-c2cc(C)oc2C)nc2onc(C)c12)c1ccccc1`, for which the “% Inhibition” value is on record as 24% and the Z score is recorded as -3.03.
For `CCCn1ncc(C(=O)NCc2cnc3cnccn23)c1C` the same measures were -12% and 1.34.
For `CN(C(=O)NCc1nc(C2CC2)no1)C1CCC(c2ccccc2)CC1` (stereo not given), the “% Inhibition” value was found to be 1% and the Z score is -0.15.
Regarding `Cc1cc(F)ccc1[C@H]1C(=O)NCCN1C(=O)c1csc(CC(C)C)n1`, the “% Inhibition” value is -11% and the Z score is listed as 1.73.
For `COc1cncc(C(=O)N2CCCc3c(C)ccc(F)c32)n1` the same measures were 2% and -0.2.
For `Cc1cc(F)ccc1NS(=O)(=O)c1c(C)[nH]c(-c2nnc(C3CC3)o2)c1C` the same measures were -10% and 1.26.
Consider `COc1ccc(S(=O)(=O)N2CCN(Cc3c[nH]c(C)n3)CC2)cc1`, for which the “% Inhibition” value is 0% and the Z score is reported as 0.02.
For `O=C(c1ccc[nH]1)N1CCCN(C(=O)C2CC3CCC2C3)CC1` (stereo not given), the “% Inhibition” value is recorded as -8% and the Z score came to 0.69.
Regarding `COC(=O)C(NC1CCCC(C(F)(F)F)C1)C(C)O` (stereo not given), the “% Inhibition” value was -8% and the Z score was found to be 1.07.
For `Cc1ccc(NC(=O)N2CC[C@H](N(CCN3CCOCC3)S(C)(=O)=O)C2)cc1F` the same measures were 3% and -0.48.
As for `Cc1ccccc1OC1CCCCC1NC(=O)N1CCN(c2nncn2C)CC1` (stereo not given), the “% Inhibition” value turned out to be 12% and the Z score was -1.52.
For `C#CCN(Cc1nc(-c2cccc(OC)c2OC)oc1C)C1CCCCC1` the same measures were -10% and 1.02.
Regarding `COc1ccc(Br)cc1CN1C(=O)CCC1(C)C(=O)NC1CCCC(C)C1C` (stereo not given), the “% Inhibition” value is reported as -15% and the Z score was found to be 2.48.
For `c1ccc(-n2ncc3c(N4CCCN(C5CC5)CC4)ncnc32)cc1` the same measures were -1% and 0.2.
For `CC[C@H](O)CCNS(=O)(=O)c1c(F)cccc1OC(F)(F)F` the same measures were 2% and -0.34.
For `CO[C@H]1CNC[C@@H]1Nc1nc(-c2ccccc2)nc2ccccc12`, the “% Inhibition” value was found to be 0% and the Z score was -0.03.
Turning to `CC(C)=CCC[C@@]1(C)CCC(=O)N(CCc2cc(O)nc(C)n2)C1`, the “% Inhibition” value is -22% and the Z score is on record as 1.97.
Consider `CCn1ccnc1[C@H]1CCCN(C(=O)c2cc(F)cc(Cl)c2)C1`, for which the “% Inhibition” value was -4% and the Z score is on record as 0.69.
For `CC(C)Oc1ccc(C2CCCC2NCC#N)cc1` (stereo not given) the same measures were -13% and 1.35.
Regarding `COc1cccc2c1CC[C@]2(N)C(=O)N(C)Cc1cnccn1`, the “% Inhibition” value is listed as -3% and the Z score is given as 0.65.
In the case of `O=C(CC1(O)CCC1)N1CCCC[C@H]1c1ccco1`, the “% Inhibition” value is reported as -9% and the Z score worked out at 1.12.
As for `CC(C)CCN(c1ncccn1)C1CCCC1`, the “% Inhibition” value is listed as -3% and the Z score stood at 0.4.
For `O=C(C[C@H](c1c[nH]c2ccc(Cl)cc12)C1CCCCC1)NCc1ccccc1` the same measures were 7% and -0.9.
For `C#CCOC[C@@H](O)CN(Cc1c(C)nn(-c2ccccc2)c1Oc1cccc(C)c1)CC1CC1` the same measures were -12% and 1.9.
For `O=C(COc1ccc(-c2ccccc2)cc1)N1CC[C@H](OCC2CC2)C1` the same measures were -15% and 2.27.
Regarding `C[C@@H](Cc1cnccn1)N(C)C(=O)c1cc(C(F)(F)F)ccc1Cl`, the “% Inhibition” value is on record as -3% and the Z score was 0.43.
For `CC(C)(C)c1nn(Cc2ccc(C#N)cc2OC(F)F)c(O)c1CCC#N` the same measures were 0% and -0.03.
Consider `CCN(Cc1cnc(NC[C@H]2CCCO2)nc1)Cc1nccn1C`, for which the “% Inhibition” value turned out to be 0% and the Z score is on record as -0.05.
`O=C1CCCN1c1ccc(CNS(=O)(=O)N2CCOCC2)cc1`: the “% Inhibition” value is on record as -13% and the Z score came out at 2.51.
With `C[C@@H](Cn1cncn1)Nc1ccc(C(N)=O)cn1`, the “% Inhibition” value is listed as 7% and the Z score is given as -0.87.
For `O=C(NC[C@H]1CCCC2(CCC2)O1)Nc1cc2cc[nH]c2cn1` the same measures were 1% and -0.09.
In the case of `C[C@H](NCc1ccc2c(c1)CCO2)c1cc(Cl)c(N)c(Cl)c1`, the “% Inhibition” value was 20% and the Z score is -2.28.
For `O=C([C@H]1CCCO1)N1C[C@@H]2[C@@](C(F)(F)F)(CCCS2(=O)=O)C1` the same measures were -5% and 0.96.
For `O=C1CCN(C(=O)C2CCC(O)CC2)CCN(c2nc(C(F)F)nc3ccc(Cl)cc23)CCN1` (stereo not given) the same measures were -16% and 1.45.
Turning to `C=CCNS(=O)(=O)c1ccc(C(=O)N2CCC3(CCC3)C2)cc1`, the “% Inhibition” value was -11% and the Z score is listed as 1.46.
For `CC(C)(C)OC(=O)CNC(=O)[C@@H]1CCCO1` the same measures were -4% and 0.54.
Turning to `O=C(O)c1nc(N2CCC([C@@H](O)CCc3ccccc3)CC2)ccc1Cl`, the “% Inhibition” value was determined as 1% and the Z score is reported as -0.31.
For `CC1CCc2c(F)cccc2C1NC(=O)C1CC1C(=O)O` (stereo not given) the same measures were 0% and -0.06.
For the molecule `O=C(Cc1ccccc1Br)NCc1nnc2n1CC[C@H](C(F)(F)F)C2`, the “% Inhibition” value was -5% and the Z score came out at 0.62.
Take `COC(=O)c1[nH]c(C)cc1NC(=O)C1=CCCCCC1`: the “% Inhibition” value is 37% and the Z score was -0.83.
As for `Cn1ncc2c(=O)[nH]c(CN(CC(N)=O)C3CCCC3)nc21`, the “% Inhibition” value was -3% and the Z score amounted to 0.54.
For `COc1cccc(C(=O)Cn2c(=O)n(CCCS(=O)(=O)C3CCCCC3)c(=O)c3ccccc32)c1` the same measures were 1% and -0.11.
For `O=C1CO[C@@H](COc2ccc(F)cc2)CN1C1CCN(CCn2ccnc2)CC1` the same measures were -14% and 1.42.
For `c1cncc(COC2CCN(c3ncnc4[nH]ccc34)CC2)c1` the same measures were -7% and 0.87.
For `COC(=O)c1cn(CCc2nc(COc3ccc(OC)cc3)no2)cc2c(O)nnc1-2`, the “% Inhibition” value is -2% and the Z score is recorded as 0.32.
Consider `O=C(c1cc(=O)[nH]c2ccc(F)cc12)N1CCCCCCC1`, for which the “% Inhibition” value is recorded as 16% and the Z score is listed as -1.64.
For `CCCN1C(=O)c2c(C(=O)OC)ncn2C[C@@]1(C)C(=O)NCc1ccc(F)cc1`, the “% Inhibition” value was -1% and the Z score is 0.1.
For the molecule `COCCn1cnnc1CN[C@@H](C)Cn1cnc2ccccc2c1=O`, the “% Inhibition” value is given as -5% and the Z score amounted to 0.63.
For the molecule `O=C(c1cc2c(s1)CCC2)N1CCN(c2nccs2)CC1`, the “% Inhibition” value was -3% and the Z score was found to be 0.25.
Consider `Fc1ccccc1OCCn1cnc(-c2ccccc2)c1-c1ccncc1`, for which the “% Inhibition” value is given as -10% and the Z score is 1.8.
For `CC(NC(=O)c1ccc(=O)n(C)c1)C1CC1c1ccccc1` (stereo not given) the same measures were -5% and 0.75.
For `Cc1cc(Cl)ccc1-n1nc(C)c([C@@H]2C=C[C@@H](NC(=O)CCC(=O)O)C2)c1C` the same measures were 22% and -2.44.
For `Cc1ccc(C(=O)N2CCN(C(=O)NC[C@H](C)c3nccs3)CC2)cc1` the same measures were -11% and 1.09.
Consider `CC1(C)CC(O)(C(=O)Nc2ccc(CCS(C)(=O)=O)cc2)C1`, for which the “% Inhibition” value was -6% and the Z score is 1.17.
On to `COc1ccc(-c2nnc(-c3nc(NCc4ccc5c(c4)OCO5)c4ccccc4n3)o2)cc1`, for which the “% Inhibition” value was -7% and the Z score was determined as 1.27.
For `CC1(NCCOC2CCCCO2)CCOC1C1CC1` (stereo not given) the same measures were -10% and 1.49.
For `CC(C)N1CCCC(CNC(=O)NC2CCCc3occc32)C1` (stereo not given) the same measures were -3% and 0.52.
For `Cn1c(=O)c2c(c3ccccc31)OC(C)(CO)C(O)C2` (stereo not given) the same measures were -6% and 0.78.
With `COCCCNCCOCCOc1cc(C)c(Cl)c(C)c1`, the “% Inhibition” value came to 3% and the Z score is -0.64.
Turning to `COC(CN1CC[S@+]([O-])C(C)(C)C1)OC`, the “% Inhibition” value is reported as -13% and the Z score is 1.81.
Regarding `CCN(C[C@H]1COc2ccccc2O1)C(=O)c1ccc(Cl)o1`, the “% Inhibition” value is -11% and the Z score came to 0.96.
`Cn1c(CO)nnc1C1CCN(C(=O)c2cccc(-c3ccccc3F)c2)CC1`: the “% Inhibition” value is listed as -5% and the Z score turned out to be 0.93.
For `O=C(Nc1nnc[nH]1)c1csc(S(=O)(=O)N2CCc3ccccc3C2)c1` the same measures were -15% and 1.97.
For `CCOC(=O)CCNC(=O)c1cc(C[C@H](C)c2ccccc2)no1` the same measures were -18% and 3.28.
On to `O=C(CCOC1CCOCC1)N(c1ccccc1)C1CCCCC1`, for which the “% Inhibition” value turned out to be 3% and the Z score is given as -0.3.
For `COCCCC1(CN(C)Cc2cc(C)on2)CCC1` the same measures were 7% and -1.1.
For `CNC(=O)c1ccc(CNC(=O)N2CC(O)C2)cc1` the same measures were -4% and 0.71.
Regarding `N#Cc1cc(C(=O)Nc2ncccc2-c2ccccc2)ccc1F`, the “% Inhibition” value was found to be 14% and the Z score is -1.8.
`COc1ccc(C)cc1NC(=O)C12CCC(C)(C(=O)C1=O)C2(C)C` (stereo not given): the “% Inhibition” value is given as -5% and the Z score is given as 0.66.
Turning to `CC(C)c1cc(C(=O)N2CCn3c(C(N)=O)cnc3C2)cs1`, the “% Inhibition” value was -7% and the Z score is reported as 1.24.
`CCc1c(C)nn(-c2cccc(C(=O)NCCN3CCCOC3=O)c2)c1O`: the “% Inhibition” value is on record as -15% and the Z score is 2.57.
`Cc1csc(CN(C)c2ccnc(N(C)C)n2)n1`: the “% Inhibition” value is reported as -14% and the Z score is given as 1.95.
For `CCOC[C@H](C)OC(=O)c1csnc1C` the same measures were -12% and 1.66.
For `CCNc1ccc(Cl)cc1C(=O)N1CC[C@H](c2cnn(C)c2)C1` the same measures were -1% and 0.25.
Take `CCOc1cc(Cl)ccc1CNC(=O)N1C[C@@H](c2nc(C)no2)O[C@@H](C)C1`: the “% Inhibition” value is on record as -2% and the Z score stood at 0.24.
